# The whole screen tested about 310,000 compounds, of which about 2,200 (0.71%) showed an effect of 50% or more. The effect is printed as a negative number. The list shows a part of the results.
# Target: human ether-à-go-go-related gene (hERG) potassium channel (human, UniProt Q12809)
# Assay: primary screen, population patch clamp on CHO cells stably expressing hERG
# Sequence of human ether-à-go-go-related gene (hERG) potassium channel (Q12809 whole entry, looked up): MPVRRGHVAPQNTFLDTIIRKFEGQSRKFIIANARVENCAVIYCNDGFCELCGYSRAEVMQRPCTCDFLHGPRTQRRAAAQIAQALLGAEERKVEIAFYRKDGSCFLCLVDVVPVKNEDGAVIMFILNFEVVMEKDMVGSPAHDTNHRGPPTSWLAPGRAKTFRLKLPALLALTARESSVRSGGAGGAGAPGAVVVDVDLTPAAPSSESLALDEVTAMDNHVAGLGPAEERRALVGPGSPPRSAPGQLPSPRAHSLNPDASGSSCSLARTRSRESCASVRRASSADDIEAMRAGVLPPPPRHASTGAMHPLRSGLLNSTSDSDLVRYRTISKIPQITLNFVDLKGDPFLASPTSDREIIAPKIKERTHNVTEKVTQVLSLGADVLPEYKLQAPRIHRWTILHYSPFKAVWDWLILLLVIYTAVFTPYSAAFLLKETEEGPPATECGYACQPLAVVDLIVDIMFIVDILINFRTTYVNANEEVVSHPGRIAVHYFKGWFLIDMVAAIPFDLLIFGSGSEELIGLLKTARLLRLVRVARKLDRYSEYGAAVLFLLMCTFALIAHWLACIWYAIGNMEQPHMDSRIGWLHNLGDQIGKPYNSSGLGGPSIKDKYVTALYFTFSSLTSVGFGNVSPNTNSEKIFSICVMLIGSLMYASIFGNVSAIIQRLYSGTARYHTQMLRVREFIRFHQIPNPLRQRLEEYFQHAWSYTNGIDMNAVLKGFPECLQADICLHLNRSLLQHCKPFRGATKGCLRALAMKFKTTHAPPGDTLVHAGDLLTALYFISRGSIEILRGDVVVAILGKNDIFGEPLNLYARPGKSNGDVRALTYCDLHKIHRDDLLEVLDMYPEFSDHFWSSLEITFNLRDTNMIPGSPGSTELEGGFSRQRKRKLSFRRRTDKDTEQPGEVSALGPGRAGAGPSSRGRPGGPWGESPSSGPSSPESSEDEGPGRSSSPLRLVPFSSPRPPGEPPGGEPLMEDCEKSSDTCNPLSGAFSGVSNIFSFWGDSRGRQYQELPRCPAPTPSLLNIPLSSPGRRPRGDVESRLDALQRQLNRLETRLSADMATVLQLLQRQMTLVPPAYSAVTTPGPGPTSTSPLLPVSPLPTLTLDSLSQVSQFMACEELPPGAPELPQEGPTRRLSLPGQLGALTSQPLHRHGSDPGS
row,SMILES,"hERG current change (%, negative = inhibition) at 1uM"
1,COc1ccc(C(=O)Cn2c(C(=O)/C=C/c3ccccc3)nc3ccccc32)cc1,-10.2%
2,Cc1nn(Cc2ccc(F)cc2)c(Cl)c1/C=N/NC(=O)c1ccccc1,-6.29%
3,COc1cccc(CN(C)C(=O)CSCC(=O)Nc2ccc(C)cc2)c1OC,0.847%
4,COc1cccc(NC(=O)N2C3CCCC2CC(NC(C)=O)C3)c1 (centres unmarked),11.6%
5,CCOC(=O)C(C)Oc1cccc2c(=O)n(CC(=O)N3CCN(C(=O)OCC)CC3)ccc12 (centres unmarked),8.66%
6,COc1ccc2c3c(c(=O)oc2c1OCC(N)=O)CCCC3,3.91%
7,COc1ccc(NC(=O)CN(C)C(=O)CCC2CCCC2)cc1,19.6%
8,COc1ccc(C(=O)N2CCN(CCNC(=O)C(=O)Nc3ccc(Br)cc3)CC2)cc1,-25.2%
9,CCc1nnc(NC(=O)CSc2ncc(-c3ccccc3)n2CC)s1,-21.5%
10,CN=c1scc(-c2ccccc2Br)n1/N=C/c1ccc[nH]1,6%
11,CCOC(=O)N/N=C/c1cn(CCCOc2ccc(C)cc2)c2ccccc12,9%
12,Cc1nc2ccccc2cc1O,9.82%
13,CN1CCc2c(c3c(n2C)CCN(C)C3c2ccc(F)cc2)C1c1ccc(F)cc1.Cl (centres unmarked),7.99%
14,CC(=O)Nc1ccc(/C=N/N2C(=O)NC(C)(c3ccc(OC(F)F)cc3)C2=O)cc1 (centres unmarked),6.48%
15,COc1ccc(N(CC(=O)NCc2cccnc2)S(=O)(=O)c2ccccc2)c(OC)c1,1.1%
16,O=C(Nc1ccc(Cl)cc1C(=O)NCc1cccnc1)c1ccc(Cl)cc1Cl,9.54%
17,CCNC(=S)N1CCn2c(nc3ccccc32)C1,5.6%
18,CCCCn1c(N)c(N(C)C(=O)c2cc3c(s2)CCCCC3)c(=O)[nH]c1=O,17%
19,Cc1ccc(S(=O)(=O)Nc2cc(NC(=O)CN3CCOCC3)ccc2Cl)cc1.Cl,8.3%
20,O=C(COC(=O)c1ccc2ccccc2n1)c1ccccc1,3.14%
21,Cc1ccc([N+](=O)[O-])c(C(=O)N/N=C/c2cccs2)c1,-1.87%
22,Cc1cnc(C(=O)Nc2ccc(C)c(S(=O)(=O)N(C)C)c2)cn1,-4.39%
23,CN(C)c1nc(NC(C)(C)C)nc(NC(C)(C)C)n1,5.18%

row,SMILES,"hERG current change (%, negative = inhibition) at 1uM"
1,COc1cccc(C(=O)Nc2cc(-c3cn4cccnc4n3)ccc2C)c1,-7.14%
2,CCOc1ccc(-c2nc(-c3ccccc3)no2)cc1OCC,-5.62%
3,CCc1ccc(NC(=O)c2sccc2-n2cccc2)cc1,0.493%
4,O=C(NC(=S)N1CCN(c2ccccn2)CC1)c1ccccc1,5.74%
5,Cc1ccc(S(=O)(=O)N(C)CC(=O)N(CC(C)C)C2CCS(=O)(=O)C2)cc1 (centres unmarked),7.26%
6,NS(=O)(=O)c1ccc(NC(=O)CCCCC(=O)Nc2ccc(S(N)(=O)=O)cc2)cc1,7.75%
7,CCOC(=O)c1cnn(-c2ccccc2)c1N,7.33%
8,COc1ccc(CN2C(=O)CCC2(C)C(=O)NC2CCCCC2)c(OC)c1 (centres unmarked),6.89%
9,CC(=O)Cn1c(CN2CC(C)CC(C)C2)nc2c1c(=O)n(C)c(=O)n2C (centres unmarked),4.72%
10,Nc1c(Br)c(=O)[nH]c(=O)n1-c1ccccc1,11.2%
11,CCOC(=O)c1nc2cc3n(c(C)c-2c1C)C(C)C(CC)=C3C.Cl (centres unmarked),-39.5%
12,COc1ccc(CCNC(=O)c2cccnc2Cl)cc1OC,12.2%
13,Cc1ccc(N2CCN(/N=C/C=C/c3ccccc3)CC2)cc1,-3.44%
14,COc1ccc2nc(NC(=O)c3sc4nc(C)cc(C)c4c3N)sc2c1,6.14%
15,O=C(NCCc1ccc(F)cc1)C(=O)NCC1CCCN1S(=O)(=O)c1ccccc1 (centres unmarked),-19%
16,CC(=O)c1c(C)[nH]c(C(=O)OCC(=O)c2ccc(C)s2)c1C,6.13%
17,Cc1nc2nc(-c3ccc(Cl)cc3)cn2nc1C,10.3%
18,COc1ccccc1-c1nnc(SCC(=O)NCc2ccco2)n1N,16.9%
19,Cc1n[nH]c(C)c1CCNCc1ccc(OCC(O)CN2CCCCC2)cc1 (centres unmarked),-6.91%
20,Cc1ccc(CNC(=O)CS(=O)Cc2nc(-c3ccccc3C)oc2C)cc1 (centres unmarked),5.91%
21,COc1ccc(/C=C2\N=C(c3ccccc3)N(c3ccc(C(=O)O)cc3)C2=O)cc1OC,7.37%
22,O=C(NC(=S)Nc1ccc(CN2CCOCC2)cc1)c1cccc([N+](=O)[O-])c1,12.9%
23,CC(C)Oc1ccc(C2CC(=O)NC3=C2C(=O)CCC3)cc1 (centres unmarked),14.8%

row,SMILES,"hERG current change (%, negative = inhibition) at 1uM"
1,Cc1ccc(NC(=O)CSCC(=O)NCCc2ccccn2)c(C)c1,16.1%
2,CC(C)S(=O)(=O)c1ccc(C(=O)Nc2ccc(F)cc2F)cn1,4.51%
3,COc1ccc(OC)c(Nc2nc(N)c([N+](=O)[O-])c(N3CCOCC3)n2)c1,13.3%
4,Cc1ccc(S(=O)(=O)N(CC(=O)NCCSc2ccccn2)c2ccccc2F)cc1,2.6%
5,O=C(/C=C/c1ccccc1)Oc1ccccc1C(=S)N1CCOCC1,7.89%
6,CCOc1ccc(NS(=O)(=O)N(C)C)cc1,4.48%
7,CCCC(=O)NC(=S)Nc1cccc(NC(=O)c2ccccc2Cl)c1,13.5%
8,CCC(C)(C)NC(=O)CN(C(=O)CCC(=O)Nc1ccccn1)c1ccc(F)c(Cl)c1,11.2%
9,O=C(NCc1cccs1)c1ccc(CS(=O)(=O)c2ccc(Cl)cc2)o1,-8.45%
10,CSc1cccc(NC(=O)C2CCN(S(=O)(=O)c3ccc4c(c3)NC(=O)CO4)CC2)c1,17.7%
11,N/C(=N\OC(=O)CN1C(=O)c2ccccc2C1=O)c1ccc(Cl)cc1,1.96%
12,Cc1nn(Cc2n[nH]c(=S)n2Cc2ccccc2)c(C)c1Cl,14.1%
13,Cc1ccc(-c2nnn(CC(=O)N(Cc3ccco3)C(C(=O)NC(C)(C)C)c3cccs3)n2)o1 (centres unmarked),-3.21%
14,Clc1ccc(CN=C(Nc2ccccc2)NC2CCCCC2)cc1,-0.643%
15,Cc1nnc(NC(=O)CCN2C(=O)/C(=C\c3ccccc3)SC2=S)s1,3.43%
16,CC(=O)NS(=O)(=O)c1ccc(N2C(=O)CC(Sc3nccc(C)n3)C2=O)cc1 (centres unmarked),14.7%
17,Nc1nc(SCC(=O)NCc2ccccc2)n[nH]1,6.33%
18,CCC(C)NC(=O)c1cccc(OCc2c(C)noc2C)c1 (centres unmarked),8.77%
19,CCCCCCNc1c(C(=O)OCC)c(=O)[nH]c2ccccc12,-0.166%
20,O=C(NCc1ccc(/C=N\NC(=O)C(=O)Nc2ccccc2Br)o1)C(=O)Nc1ccccc1,18.4%
21,Cc1cccc(N2C(=S)NC3c4cc(Cl)ccc4OC2(C)C3C(=O)N(C)C)c1 (centres unmarked),2.3%
22,O=C1N=c2ccccc2=C1c1sc(=S)n(NC(=O)c2ccccc2)c1O,9.06%
23,O=C(O)c1n[nH]c2c1CCCC2,18.8%

row,SMILES,"hERG current change (%, negative = inhibition) at 1uM"
1,COc1ccccc1N1CCN(CC(=O)Nc2cc(F)ccc2C)CC1,-0.831%
2,O=C(CCc1ccccc1)NC(NC(=S)Nc1cccc(Cl)c1)C(Cl)(Cl)Cl (centres unmarked),13.7%
3,Cc1occc1C(=O)/C(C#N)=C/c1ccc(O)c(Br)c1,12.6%
4,CCOC(=O)c1cc(S(=O)(=O)NC2CCCCC2)cn1C,10.3%
5,Cc1ccc(-c2ccc(CCC(=O)O)n2CC(=O)O)cc1,12.7%
6,C=CCn1c(-c2csc(-c3ccccc3)n2)n[nH]c1=S,21.9%
7,Cn1nccc1C(=O)NC1CCCc2c1cnn2-c1ccc(C(C)(C)C)cc1 (centres unmarked),19.2%
8,CN(C)/C(=N\S(=O)(=O)c1ccc(Cl)cc1)c1ccc(F)cc1,12.8%
9,COc1cc(S(=O)(=O)NCc2ccccc2)ccc1Br,6.24%
10,COc1ccc(C(=O)Nc2cc(C(=O)c3ccccc3)c(C)oc2=O)cc1,12.9%
11,O=C(C1CCN(S(=O)(=O)c2ccc3c(c2)OCCO3)CC1)N1CCc2ccccc21,4.85%
12,CN(C)c1cccc(NC2=CC(=[N+]3CCOCC3)CC(C)(C)C2)c1.[I-],-22.2%
13,CCCCn1c(N)c(N(CC(C)C)C(=O)CCS(=O)(=O)c2ccc(C)cc2)c(=O)[nH]c1=O,5.41%
14,O=S(=O)(Nc1nc2ccccc2nc1-[n+]1cccc(N=C([O-])c2ccc(Cl)cc2)c1)c1ccccc1,9.3%
15,CCOC(=O)COc1ccc2nsnc2c1Cl,12.2%
16,COC(=O)Cn1cnc2ccccc2c1=O,-10.6%
17,COc1ccc(-c2cc(Cl)cc3c(=O)c4ccccc4n(C)c23)cc1F,17.5%
18,O=C(Nc1ccc([N+](=O)[O-])cn1)C1CC1,9.84%
19,CCOC(=O)c1c(NC(=O)COC(=O)c2ccc(NC(=O)CC#N)cc2)sc(C(=O)NC)c1C,2.16%
20,O=C(c1ccc(F)cc1)C1CCN(C(=O)c2ccc(F)cc2)CC1,2.31%

# From paper PMC4336329 (PLoS ONE, 2015)
